In the supplement of paper PMC4967469:
The IC50 comes from the fitted curve, where viability falls to half of the control; where the fit passes the top or lowest dose, that dose stands as a limit. The AUC spans the tested range (256-fold, ending at the top dose) of the same fit; it is 1 without any effect and falls as sensitivity rises. For some assays here: An inferred top dose is not printed in the source and was worked back from the curve model. For some assays here: An entry number marks a drug with two screens in the source, which often give different values.

How the values were obtained:
Assay in all cases: Viability of human cancer cell lines after 72 h of drug (GDSC screen)
Thapsigargin = compound: C/C=C(/C)C(=O)O[C@H]1C(C)=C2[C@H]([C@@H]1OC(=O)CCCCCCC)[C@@](C)(OC(C)=O)C[C@H](OC(=O)CCC)[C@@]1(O)[C@H]2OC(=O)[C@@]1(C)O [Thapsigargin]; conditions: top dose 0.512 µM; top dose inferred
Protocol: (§1)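 Human cancer cell lines in 384-well plates, medium with 10% serum, drug for 72 h over a 256-fold dose range (nine 2-fold or five 4-fold steps up to the top dose). Adherent lines were fixed and stained with the nucleic acid dye Syto60, suspension lines read with resazurin; signal relative to control wells, capped at 0 and 100%. One two-parameter sigmoid per drug and line, fitted in a mixed model over all curves with the slope shared within a line.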

QL-X-138 = compound: C=CC(=O)Nc1cc(-n2c(=O)ccc3cnc4ccc(-c5cn[nH]c5)cc4c32)ccc1C [QL-X-138]; conditions: top dose 10.24 µM; top dose inferred
Protocol: as §1

GSK269962A = compound: CCn1c(-c2nonc2N)nc2cnc(Oc3cccc(NC(=O)c4ccc(OCCN5CCOCC5)cc4)c3)cc21 [GSK269962A]; conditions: top dose inferred
Protocol: as §1

MPS-1-IN-1 = compound: COc1cc(N2CCC(O)CC2)ccc1Nc1cc(Nc2ccccc2S(=O)(=O)C(C)C)c2cc[nH]c2n1 [MPS-1-IN-1]; conditions: top dose 20 µM; top dose inferred
Protocol: as §1

(5Z)-7-Oxozeaenol = compound: COc1cc(O)c2c(c1)/C=C/C[C@H](O)[C@H](O)C(=O)/C=C\C[C@H](C)OC2=O [(5Z)-7-Oxozeaenol]; conditions: top dose 10 µM; top dose inferred
Protocol: as §1

CP466722 = compound: COc1cc2ncnc(-n3nc(-c4ccccn4)nc3N)c2cc1OC [CP466722]; conditions: top dose 16 µM; top dose inferred
Protocol: as §1

Zibotentan = compound: COc1nc(C)cnc1NS(=O)(=O)c1cccnc1-c1ccc(-c2nnco2)cc1 [Zibotentan]; conditions: top dose 20 µM; top dose inferred
Protocol: as §1

ABT-888 = compound: C[C@]1(c2nc3c(C(N)=O)cccc3[nH]2)CCCN1 [ABT-888]; conditions: top dose 5 µM; top dose inferred
Protocol: as §1

CMK = compound: Cc1ccc(-c2c(C(=O)CCl)n(CCCO)c3ncnc(N)c23)cc1 [CMK]; conditions: top dose 4 µM; top dose inferred
Protocol: as §1

ABT-869 = compound: Cc1ccc(F)c(NC(=O)Nc2ccc(-c3cccc4[nH]nc(N)c34)cc2)c1 [ABT-869]; conditions: top dose 1.024 µM; top dose inferred
Protocol: as §1

CHIR-99021 = compound: Cc1cnc(-c2cnc(NCCNc3ccc(C#N)cn3)nc2-c2ccc(Cl)cc2Cl)[nH]1 [CHIR-99021]
Protocol: as §1

KU-55933 = compound: O=c1cc(-c2cccc3c2Sc2ccccc2S3)oc(N2CCOCC2)c1 [KU-55933]; conditions: top dose 10 µM
Protocol: as §1

[1] = top dose 2.5 µM, screen: GDSC drug entry 127
[2] = top dose 5 µM, screen: GDSC drug entry 1192
[3] = top dose 2.56 µM, screen: GDSC drug entry 154
[4] = top dose 10 µM, screen: GDSC drug entry 1241, top dose inferred

Cell Line: U-87-MG (glioma, adherent)
- AUC (Thapsigargin): 0.709
- IC50 (Thapsigargin): 0.139 µM
- AUC (QL-X-138): 0.672
- IC50 (QL-X-138): 2.11 µM
- AUC (GSK269962A; [1]): 0.982
- IC50 (GSK269962A; [1]): > 2.5 µM
- AUC (GSK269962A; [2]): 0.945
- IC50 (GSK269962A; [2]): > 5 µM
- AUC (MPS-1-IN-1): 0.907
- IC50 (MPS-1-IN-1): > 20 µM
- AUC ((5Z)-7-Oxozeaenol): 0.635
- IC50 ((5Z)-7-Oxozeaenol): 1.58 µM
- AUC (CP466722): 0.862
- IC50 (CP466722): > 16 µM
- AUC (Zibotentan): 0.969
- IC50 (Zibotentan): > 20 µM
- AUC (ABT-888): 0.983
- IC50 (ABT-888): > 5 µM
- AUC (CMK): 0.936
- IC50 (CMK): > 4 µM
- AUC (ABT-869): 0.981
- IC50 (ABT-869): > 1.02 µM
- AUC (CHIR-99021; [3]): 0.985
- IC50 (CHIR-99021; [3]): > 2.56 µM
- AUC (CHIR-99021; [4]): 0.958
- IC50 (CHIR-99021; [4]): > 10 µM
- AUC (KU-55933): 0.985
- IC50 (KU-55933): > 10 µM

Cell Line: WSU-NHL (lymphoid neoplasm, suspension)
- AUC (Thapsigargin): 0.304
- IC50 (Thapsigargin): 0.00973 µM
- AUC (QL-X-138): 0.868
- IC50 (QL-X-138): 7.48 µM
- AUC (GSK269962A; [1]): 0.901
- IC50 (GSK269962A; [1]): > 2.5 µM
- AUC (GSK269962A; [2]): 0.956
- IC50 (GSK269962A; [2]): > 5 µM
- AUC (MPS-1-IN-1): 0.85
- IC50 (MPS-1-IN-1): 12.4 µM
- AUC ((5Z)-7-Oxozeaenol): 0.565
- IC50 ((5Z)-7-Oxozeaenol): 0.919 µM
- AUC (CP466722): 0.802
- IC50 (CP466722): 6.77 µM
- AUC (Zibotentan): 0.99
- IC50 (Zibotentan): > 20 µM
- AUC (ABT-888): 0.99
- IC50 (ABT-888): > 5 µM
- AUC (CMK): 0.951
- IC50 (CMK): > 4 µM
- AUC (ABT-869): 0.989
- IC50 (ABT-869): > 1.02 µM
- AUC (CHIR-99021; [3]): 0.986
- IC50 (CHIR-99021; [3]): > 2.56 µM
- AUC (CHIR-99021; [4]): 0.973
- IC50 (CHIR-99021; [4]): > 10 µM
- AUC (KU-55933): 0.883
- IC50 (KU-55933): 8.5 µM
